Experimental data reported in PubChem BioAssay AID686978 (National Center for Advancing Translational Sciences (NCATS), 2013).
Out of some 420,000 compounds screened, about 64,000 (15%) were called active. The inconclusive results got no clear call from the source; some entries with a clear call stand among them for comparison. The call rests on the fitted dose curve; in most records, active means well fitted inhibition curve with a large enough effect; inconclusive means small, poorly fitted or top-dose-only effect; inactive means flat fitted curve, though single readings scatter. Potencies of inconclusive entries are left out as doubtful fits.
On the % scale 0 is the no-effect control and ±100 the full control effect; potency means the concentration at half of the fitted maximal effect; tags describe the fitted curve by direction and shape.

Test: qHTS for Inhibitors of human tyrosyl-DNA phosphodiesterase 1 (TDP1): qHTS in cells in absence of CPT; further: nearly all actives have a fitted effect of over 55% in size
Settings: DT40 Tdp1-/- hTDP1 cells, no CPT, ATP luminescence, 48 h; activity change, negative = growth inhibition: at 46.2 µM (top of the series) unless noted
How it was run: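 No-CPT arm: Tdp1-/-;hTDP1 DT40 cells (400/well) plus compounds, incubated ≥48 hr at 37 °C. Readout CellTiter-Glo luminescence.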
With `CCc1cc2c(CN(C)Cc3ccccc3F)cc(=O)oc2cc1O` the Potency was active: 14.6 µM. With `CCOCCCNC(=O)c1cn(C)c2ccc(S(=O)(=O)N3CCCCC3)cc2c1=O` the Potency was “inactive”. In the case of `Cn1c(=O)c2c(nc(Cc3ccc(N)cc3)n2C)n(C)c1=O`, the Potency is reported as “inactive”. In the case of `Cc1cc(/C=C2/SC(=S)N(c3ccc([N+](=O)[O-])cc3)C2=O)c(C)n1-c1cccnc1`, the Potency is reported as active: 1.03 µM. In the case of `O=C(c1ccco1)N1CCN(C(=O)c2ccc(COc3ccc(F)cc3)o2)CC1`, the Potency is reported as inconclusive [inhibitor, partial curve, poor fit]. In the case of `C=Cc1ccc(Cn2c(=O)n(-c3cccc(Cl)c3)c(=O)c3c4c(sc32)CN(C(C)=O)CC4)cc1`, the Potency is reported as inconclusive [inhibitor, single point]. For `COc1ncnc2c1ncn2CCCN(C)Cc1ccco1`, the Potency was “inactive”. For `COC(=O)c1ccsc1NC(=O)CN1CCN(c2ccc(F)cc2)CC1`, the Potency was inconclusive [inhibitor, partial curve]. For `CC(OC(=O)C1=COCCO1)C(=O)Nc1cc(S(=O)(=O)N2CCCCC2)ccc1Cl` (configuration not stated), the Potency was inconclusive [inhibitor, partial curve]. In the case of `CCN(Cc1ccccc1)Cc1c(O)ccc2oc(C)c(C(=O)Nc3ccc(C)cc3C)c12`, the Potency is reported as active: 7.31 µM. For `O=c1cc(NCCc2ccccc2)c2ccccc2o1`, the Potency was active: 8.2 µM. With `COc1cc2ccccc2cc1C(=O)NC(=S)Nc1ccc(C(=O)O)cc1` the Potency was “inactive”. In the case of `CSCCC(c1nnnn1C(C)(C)C)N1CCN(C/C=C/c2ccccc2)CC1` (configuration not stated), the Potency is reported as inconclusive [inhibitor, single point]. For `O=C(CCc1nc(-c2ccccc2)c(-c2ccccc2)o1)OCc1ccc(Br)cc1`, the Potency was “inactive”. With `COc1cccc(NC(=O)Nc2nnc(N3C(C)CCCC3C)s2)c1` (configuration not stated) the Potency was active: 18.4 µM. In the case of `COCCCNC(=O)CCn1c(=O)c2ccccc2n(CC(=O)Nc2cc(Cl)ccc2OC)c1=O`, the Potency is reported as “inactive”. In the case of `Cc1ccc(/C=C2/Sc3ccc(C(=O)N4CCN(C)CC4)cc3NC2=O)cc1`, the Potency is reported as inconclusive [inhibitor, single point]. With `Cc1cccc(N2CCn3c2nc2c3c(=O)n(C/C=C/c3ccccc3)c(=O)n2C)c1` the Potency was “inactive”. For `Cc1cc(C(=O)N2CCCC(C(=O)c3cccc4ccccc34)C2)nc(C)n1` (configuration not stated), the Potency was inconclusive [inhibitor, single point]. For `O=C(COc1cccc(Cl)c1)NCC(c1cccs1)N1CCOCC1` (configuration not stated), the Potency was “inactive”. In the case of `CCCCN(CC)c1nc(-c2ccccc2F)nc2ccccc12`, the Potency is reported as inconclusive [inhibitor, partial curve]. With `Cc1ccccc1Cn1c(=O)n(CCCC(=O)NCc2ccco2)c(=O)c2sccc21` the Potency was inconclusive [inhibitor, single point]. For `Cc1cc(NCc2ccccn2)n2ncc(-c3ccc(Cl)cc3)c2n1`, the Potency was active: 0.82 µM. For `COc1ccc(C(=O)n2c(SC)nc3cc4c(cc32)OCCO4)cc1`, the Potency was inconclusive [inhibitor, single point]. In the case of `COc1ccc(-n2cc(CNCC3CCOCC3)c(-c3cccc(F)c3)n2)cc1`, the Potency is reported as active: 16.4 µM. For `CCCCN(C(=O)CSc1nnc(-c2ccc(OC)cc2)n1C(C)C)c1c(N)n(Cc2ccccc2)c(=O)[nH]c1=O`, the activity change, negative = growth inhibition was inconclusive: -31.8% [inhibitor]. For `Cc1cc(C)c(C#N)c(N2CCN(C(=O)C3COc4ccccc4O3)CC2)n1` (configuration not stated), the Potency was inconclusive [inhibitor, partial curve, poor fit]. For `N#Cc1c(-c2ccco2)cc(-c2ccccn2)nc1N`, the Potency was inconclusive [inhibitor, single point]. With `CN1C(=O)C2(C(C#N)=C(N)Oc3n[nH]c(-c4ccc(Cl)cc4)c32)c2ccccc21` (configuration not stated) the Potency was “inactive”. With `CCN(CC)C(=O)c1ccc(S(=O)(=O)N2CCC(c3nc4ccccc4s3)CC2)cc1` the Potency was active: 10.3 µM. In the case of `S=C1NC2=C(CCCC2)C2(CCCCC2)N1`, the Potency is reported as inconclusive [inhibitor, single point]. With `CCc1ccc(C(=O)NNC(=O)CN2C(=O)NC3(CCCC3)C2=O)cc1` the Potency was “inactive”. In the case of `CN1C(C(=O)Nc2cccc(O)c2)=CC(c2ccco2)=NS1(=O)=O`, the Potency is reported as “inactive”. For `COc1cc(C)c(C(=O)CSc2nnc(CNC(=O)c3ccco3)n2C)cc1C`, the Potency was “inactive”. In the case of `Cc1cc(C)c(C(N)=O)c(Nc2cccc(Cl)c2C)n1`, the Potency is reported as inconclusive [inhibitor, partial curve]. With `Cc1ccc(OCCn2cc(/C(N)=N/O)c3ccccc32)cc1C` the Potency was inconclusive [inhibitor, single point]. In the case of `CC(C)c1ccc(NC(=O)N2c3ccccc3Sc3ccccc32)cc1`, the Potency is reported as inconclusive [inhibitor, single point]. In the case of `C[C@]12CCC(=O)C=C1CC[C@@H]1C2[C@@H](O)C[C@@]2(C)[C@H]1CC[C@]2(O)C(=O)CO` (some centres not stated), the Potency is reported as inconclusive [inhibitor, single point]. In the case of `O=C(COc1ccc2ccccc2c1)Nc1ccc(Cc2ccncc2)cc1`, the Potency is reported as inconclusive [inhibitor, single point]. For `Cn1c(N)c(C(=O)COC(=O)C2CC(O)CN2S(=O)(=O)c2ccc(Cl)cc2)c(=O)n(C)c1=O` (configuration not stated), the activity change, negative = growth inhibition was inconclusive: -32.2% [inhibitor]. For `CC(=O)Nc1ccc(NC(=O)c2c(C)nn(Cc3ccccc3)c2Cl)cc1`, the Potency was active: 1.16 µM. In the case of `COC(=O)c1c(C)oc(C)c1S(=O)(=O)NCc1ccc(OC)cc1`, the Potency is reported as “inactive”. With `C=CCNC(=S)Nc1ccc(N2CCOCC2)c(S(=O)(=O)Nc2ccccc2Cl)c1` the Potency was inconclusive [inhibitor, single point]. With `CCCCOCCCNC(=O)C1CCCCC1` the Potency was “inactive”. With `CCOC(=O)CCCCC1C(CCCC(=O)OCC)C=NN1C` (configuration not stated) the Potency was “inactive”. In the case of `NNC(=O)c1cc(O)c(O)c(O)c1`, the Potency is reported as inconclusive [inhibitor, single point]. For `COc1ccc(C(=O)Nc2cccc3nc(C)ccc23)c(OC)c1`, the Potency was inconclusive [inhibitor, partial curve, poor fit].
